# In the supplement of paper PMC8728848:
# Some of the results follow.
# Assays:
# Experiment in all cases: glycan array binding signal (z-score within array); higher = stronger binding
# Conditions in all cases: glycan notation: IUPAC condensed, linker removed
# [1] = target: Fuc(a1-2)[Gal(a1-3)]Gal(b1-3)GlcNAc
# Outline: (§1)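 The binding signal is a Z-score computed within each array. Data were drawn from 3228 arrays in the Consortium for Functional Glycomics database, restricted to those with a known protein sequence. Scores were averaged over arrays of the same protein sequence at different concentrations or buffers, and over linkers, and negative values can be taken as non-binding.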
# [2] = target: Fuc(a1-2)[Gal(a1-3)]Gal(b1-3)GlcNAc(b1-2)Man(a1-3)[Fuc(a1-2)[Gal(a1-3)]Gal(b1-3)GlcNAc(b1-2)Man(a1-6)]Man(b1-4)GlcNAc(b1-4)GlcNAc
# Outline: as §1
# [3] = target: Fuc(a1-2)[Gal(a1-3)]Gal(b1-3)GlcNAc(b1-2)Man(a1-3)[Fuc(a1-2)[Gal(a1-3)]Gal(b1-3)GlcNAc(b1-2)Man(a1-6)]Man(b1-4)GlcNAc(b1-4)[Fuc(a1-6)]GlcNAc
# Outline: as §1
# [4] = target: Fuc(a1-2)[Gal(a1-3)]Gal(b1-3)GlcNAc(b1-3)GalNAc
# Outline: as §1
# [5] = target: Fuc(a1-2)[Gal(a1-3)]Gal(b1-3)GlcNAc(b1-6)GalNAc
# Outline: as §1
# [6] = target: Fuc(a1-2)[Gal(a1-3)]Gal(b1-4)Glc
# Outline: as §1
# [7] = target: Fuc(a1-2)[Gal(a1-3)]Gal(b1-4)GlcNAc
# Outline: as §1
# [8] = target: Fuc(a1-2)[Gal(a1-3)]Gal(b1-4)GlcNAc(b1-2)Man
# Outline: as §1
# [9] = target: Fuc(a1-2)[Gal(a1-3)]Gal(b1-4)GlcNAc(b1-2)Man(a1-3)[Fuc(a1-2)[Gal(a1-3)]Gal(b1-4)GlcNAc(b1-2)Man(a1-6)]Man(b1-4)GlcNAc(b1-4)GlcNAc
# Outline: as §1
# [10] = target: Fuc(a1-2)[Gal(a1-3)]Gal(b1-4)GlcNAc(b1-2)Man(a1-3)[Fuc(a1-2)[Gal(a1-3)]Gal(b1-4)GlcNAc(b1-2)Man(a1-6)]Man(b1-4)GlcNAc(b1-4)[Fuc(a1-6)]GlcNAc
# Outline: as §1
# [11] = target: Fuc(a1-2)[Gal(a1-3)]Gal(b1-4)GlcNAc(b1-3)GalNAc
# Outline: as §1
# [12] = target: Fuc(a1-2)[Gal(a1-3)]Gal(b1-4)GlcNAc(b1-3)[Fuc(a1-2)[Gal(a1-3)]Gal(b1-4)GlcNAc(b1-6)]GalNAc
# Outline: as §1
# [13] = target: Fuc(a1-2)[Gal(a1-3)]Gal(b1-4)GlcNAc(b1-6)GalNAc
# Outline: as §1
# [14] = target: Fuc(a1-2)[Gal(a1-3)]Gal(b1-4)[Fuc(a1-3)]Glc
# Outline: as §1
# [15] = target: Fuc(a1-2)[Gal(a1-3)]Gal(b1-4)[Fuc(a1-3)]GlcNAc
# Outline: as §1
# [16] = target: Fuc(a1-2)[Gal(a1-3)]Gal(b1-4)[Fuc(a1-3)]GlcNAc(b1-3)GalNAc
# Outline: as §1
# [17] = target: Fuc(a1-2)[Gal(a1-4)]Gal(b1-4)GlcNAc
# Outline: as §1
# [18] = target: Fuc(a1-2)[GalNAc(a1-3)]Gal
# Outline: as §1
# [19] = target: Fuc(a1-2)[GalNAc(a1-3)]Gal(b1-3)GalNAc(a1-3)[Fuc(a1-2)]Gal(b1-4)GlcNAc
# Outline: as §1
# [20] = target: Fuc(a1-2)[GalNAc(a1-3)]Gal(b1-3)GalNAc(b1-3)Gal(a1-4)Gal(b1-4)Glc
# Outline: as §1
# [21] = target: Fuc(a1-2)[GalNAc(a1-3)]Gal(b1-3)GlcNAc
# Outline: as §1
# [22] = target: Fuc(a1-2)[GalNAc(a1-3)]Gal(b1-3)GlcNAc(b1-2)Man(a1-3)[Fuc(a1-2)[GalNAc(a1-3)]Gal(b1-3)GlcNAc(b1-2)Man(a1-6)]Man(b1-4)GlcNAc(b1-4)GlcNAc
# Outline: as §1
# [23] = target: Fuc(a1-2)[GalNAc(a1-3)]Gal(b1-3)GlcNAc(b1-2)Man(a1-3)[Fuc(a1-2)[GalNAc(a1-3)]Gal(b1-3)GlcNAc(b1-2)Man(a1-6)]Man(b1-4)GlcNAc(b1-4)[Fuc(a1-6)]GlcNAc
# Outline: as §1
binder,measurement,setting,value
"Cp ZmpB (Clostridium perfringens), Q0TR08 (protein) MNKRKIAAIILATMITNLSATTIDVLAQELNTKNNSKVEVSHDDESHQARVSKFDLYNSDKLDAYNQEFQVSRSNIKSINNNGGKYNSSTIDKAIDGNLETHWETGKPNDANFTNEVVVTFNEITNIDRIVYSARRDSARGKGFAKEFEIYASLKDEGDDFNLVSSGEYTESTRDLVEIKFNPTDFKRLKFKFKKADQNWASAAEFMFYKEDKLNEKFNGLFTDSSMNKVSEEFNTLEKLNAFENELKDHPIYDLYKEGLNNARAILTETSENPTKATLGQITYNLNDDYNNQYRMPYKNIKAIKNNGRHYAAQNIEKAIDNDVNTYWETGTLNSSSFNNEVEVEFNDLVTLDRIVYGSRQSDLKGFAEEVYIYASRTSKGDTYKLVATGAHEATKGLVEAKFEPTEFKRVKFKFKKSKQNSATLNELMFYKPDEVYSSIPKLFTDGTMSELSEEFNSLEKINAFKEKAKNHPLYNDFNETIELAESLISNPRKEDVLELEMRGDSISEAKKRKVWNFQDWQITGLSARAGDKITVYVDVAEGDPTPTLLYKQSLTQHGGATSFQLKPGKNEITIPEINYESNGIPKDVIQGGDLFFTNYKSDSQKRAPKVRIEGASKYPVFILGKSDENEVMKELEAYVEKIKAEPKTTPNIFAVSSNKSLEFVQATYALDWYKKNNKTPKYTAEQWDQYIADAMGFWGFDNSKDVNSDFNFRIMPMVKNLSGGAFMNAGNGVIGIRPGNQDAILAANKGWGVAHELGHNFDTGGRTIVEVTNNMMPLFFESKYKTKTRITDQNIWENNTYPKVGLDDYSNNELYNKADSTHLAQLAPLWQLYLYDNTFYGKFERQFRERDFGNKNREDIYKSWVVAASDAMELDLTEFFARHGIRVDDKVKEDLAKYPKPDKKIYYLNDLAMNYKGDGFTENAKVSVSTSGSNGNIKLSFSVDDENKDNILGYEIRRDGKYVGFTSNDSFVDTKSNLDEDGVYVVTPYDRKLNTLNPIEVNALQPTLSVNPVITLALGEEFNEEEYIVAKDIKGNSLSESVKVKSSNVNTSKVGEYEVLYSLEDSKGNEYTKTSKVNVVSRKEYMSDLTPKQSSNGWGTVRKDKSISGGVIGLTRDGDFVDYNKGLGLHSNAEYVYDLEGKDYDYFESYVGVDKAMSSRPASSVIFKVLVDGEEKFNSGVMRSTTPQKYVKVDVKNAKELKLIVNDAGDGDSSDHASFGDAKLATLSSKPIIKGENLAYSMDEKVDLMKGITATDIEDGNITSKVQIKSSDFVEGKSGIFTVVYSVTDSDGLTSECSRTIAVTDKETQLSDLNWKSATIGSGSVRKDRAVSGNQIRLLNEDNSVETFAKGIGTHSYSEIVYNSEGYDIFDTWVGIDRHVADKKVSSVKFKVYVDGELKAETDVMRIDTPKKRLVVDVRNSKEIKLVVDVADNGNNWDHADWADAKFRNLAEYDASELNKAIEEAKKLDLNNYTEESSEALKNAISKGEEALLSKDKETINSALEELNKEMNSLVKVDLNAVINIPDKYLLKSIQNQLNKTGDITLGDMYSLTTLTLSGVEDLTGLENAKNLETLNMDYNEVKDLRPLSKLKKLNTLNAQEQFIAAGELKPSNGKVIGDSKVYNREGKNVAKTIRVVDKNGNTILEQDAKDEFTINTKDLSSGLYGVHVLFEDEGFSGVMFYLFNV",glycan array binding signal (z-score),[1],-0.118
same,glycan array binding signal (z-score),[2],-0.346
same,glycan array binding signal (z-score),[3],-0.03
same,glycan array binding signal (z-score),[4],0.227
same,glycan array binding signal (z-score),[5],0.261
same,glycan array binding signal (z-score),[6],0.009
same,glycan array binding signal (z-score),[7],0.021
same,glycan array binding signal (z-score),[8],0.008
same,glycan array binding signal (z-score),[9],-0.091
same,glycan array binding signal (z-score),[10],-0.06
same,glycan array binding signal (z-score),[11],0.312
same,glycan array binding signal (z-score),[12],0.081
same,glycan array binding signal (z-score),[13],-0.395
same,glycan array binding signal (z-score),[14],-0.23
same,glycan array binding signal (z-score),[15],0.005
same,glycan array binding signal (z-score),[16],-0.075
same,glycan array binding signal (z-score),[17],-0.277
same,glycan array binding signal (z-score),[18],-0.12
same,glycan array binding signal (z-score),[19],0.06
same,glycan array binding signal (z-score),[20],-0.231
same,glycan array binding signal (z-score),[21],0.286
same,glycan array binding signal (z-score),[22],0.371
same,glycan array binding signal (z-score),[23],-0.379
